This data set concerns the molecule itself. Description: SPR; Biacore T100; antibody CT19.1 (epitope aa 331-361) amine-coupled to a CM5 chip to 4,000 RU; truncated tau peptides injected at 20 ul/min in PBS at 25 C; the authors read the signal as the mass of aggregates bound.

B1: recombinant fibril core peptide (tau […]) (domain or fragment)
chain: not shown
notes: tau, […] of tau441 ([…]); amplified from the tau441 cDNA Origene RC213312; Species from the printed UniProt entry; also called insoluble core fragment; source: E. coli BL21 (DE3), purified (Ni-NTA, SUMO protease cleavage, size exclusion where necessary); not shown: His6-SUMO, N-terminal, cleaved
As for B1, the binding result is on record as “binds”.

B2: recombinant STA core peptide (tau […]) (domain or fragment)
chain: not shown
notes: tau, […] of tau441 ([…]); amplified from the tau441 cDNA Origene RC213312; Species from the printed UniProt entry; also called soluble core fragment; source: E. coli BL21 (DE3), purified (Ni-NTA, SUMO protease cleavage, size exclusion where necessary); not shown: His6-SUMO, N-terminal, cleaved
Consider B2, for which the binding result is “binds”.
